For one molecule, binding results are on record in PMC9507357.

The experiment concerns the target NCoR (nuclear receptor co-repressor), exogenous (transfected; tag not given), O75376. As to the kind of experiment: co-IP; Co-IP combined with Re-IP: MDA-MB-231 cells transfected with indicated plasmids, anti-FLAG agarose, elution with FLAG peptide, re-immunoprecipitation with anti-MYC or normal IgG, immunoblot. The settings on record: remark: other sources report otherwise. Background: In western blotting, separated proteins are transferred to a membrane and probed.

These are yes or no findings as the source states them, for the method shown. Binding seen in cells or lysates may run through a third protein. Some entries that bind do so weakly or less than the wild type. Sequences can lack the tags named with a protein.

B1: HDAC3 (histone deacetylase 3), exogenous (transfected; tag not told in the text), O15379 1-428 (enzyme)
chain: MAKTVAYFYDPDVGNFHYGAGHPMKPHRLALTHSLVLHYGLYKKMIVFKPYQASQHDMCRFHSEDYIDFLQRVSPTNMQGFTKSLNAFNVGDDCPVFPGLFEFCSRYTGASLQGATQLNNKICDIAINWAGGLHHAKKFEASGFCYVNDIVIGILELLKYHPRVLYIDIDIHHGDGVQEAFYLTDRVMTVSFHKYGNYFFPGTGDMYEVGAESGRYYCLNVPLRDGIDDQSYKHLFQPVINQVVDFYQPTCIVLQCGADSLGCDRLGCFNLSIRGHGECVEYVKSFNIPLLVLGGGGYTVRNVARCWTYETSLLVEEAISEELPYSEYFEYFAPDFTLHPDVSTRIENQNSRQYLDQIRQTIFENLKMLNHAPSVQIHDVPADLLTYDRTDEADAEERGPEENYSRPEAPNEFYDGDHDNDKESDVEI
On to B1, for which the binding entry is on record as “binds”.
